# According to the supplement of paper PMC8728848:
# Some of the results follow.
# B1: CVN-E41G (protein)
# chain: MHHHHHHENLYFQSGNFSQACYNSAIQGSVLTSTCIRTNGGYNTSSIDLNSVIANVDGSLKWQGSNFIETCRNTQLAGSSELAAECKTRAQQFVSTKINLDDHIAAIDGTLKYE
# How the values were obtained:
# Test in all cases: glycan array binding signal (z-score within array); higher = stronger binding
# Details in all cases: glycan notation: IUPAC condensed, linker removed; mutation: E41A
# [1] = target: Gal(b1-4)GalNAc(b1-3)[Fuc(a1-2)]Gal(b1-4)GlcNAc
# Summary of the method: (§1)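 From the Consortium for Functional Glycomics database, 3228 arrays were curated, keeping only those whose protein sequence was available. Binding is given as a within-array Z-score averaged across arrays sharing a protein sequence and across linkers. Negative Z-scores can be read as non-binding.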
# [2] = target: Gal(b1-4)Glc
# Summary of the method: as §1
# [3] = target: Gal(b1-4)Glc6S
# Summary of the method: as §1
# [4] = target: Gal(b1-4)GlcNAc
# Summary of the method: as §1
# [5] = target: Gal(b1-4)GlcNAc(a1-6)Gal(b1-4)GlcNAc
# Summary of the method: as §1
# [6] = target: Gal(b1-4)GlcNAc(b1-2)Man
# Summary of the method: as §1
# [7] = target: Gal(b1-4)GlcNAc(b1-2)Man(a1-3)Man(b1-4)GlcNAc(b1-4)GlcNAc
# Summary of the method: as §1
# [8] = target: Gal(b1-4)GlcNAc(b1-2)Man(a1-3)[Gal(b1-4)GlcNAc(b1-2)Man(a1-6)]Man(b1-4)GlcNAc(b1-4)GlcNAc
# Summary of the method: as §1
# [9] = target: Gal(b1-4)GlcNAc(b1-2)Man(a1-3)[Gal(b1-4)GlcNAc(b1-2)Man(a1-6)]Man(b1-4)GlcNAc(b1-4)[Fuc(a1-6)]GlcNAc
# Summary of the method: as §1
# [10] = target: Gal(b1-4)GlcNAc(b1-2)Man(a1-3)[Gal(b1-4)GlcNAc(b1-2)Man(a1-6)][Gal(b1-4)GlcNAc(b1-4)]Man(b1-4)GlcNAc(b1-4)[Fuc(a1-6)]GlcNAc
# Summary of the method: as §1
# [11] = target: Gal(b1-4)GlcNAc(b1-2)Man(a1-3)[Gal(b1-4)GlcNAc(b1-2)Man(a1-6)][GlcNAc(b1-4)]Man(b1-4)GlcNAc(b1-4)[Fuc(a1-6)]GlcNAc
# Summary of the method: as §1
# [12] = target: Gal(b1-4)GlcNAc(b1-2)Man(a1-3)[GlcNAc(b1-2)Man(a1-6)]Man(b1-4)GlcNAc(b1-4)GlcNAc
# Summary of the method: as §1
# [13] = target: Gal(b1-4)GlcNAc(b1-2)Man(a1-3)[GlcNAc(b1-4)][Gal(b1-4)GlcNAc(b1-2)Man(a1-6)]Man(b1-4)GlcNAc(b1-4)GlcNAc
# Summary of the method: as §1
# [14] = target: Gal(b1-4)GlcNAc(b1-2)Man(a1-3)[Man(a1-6)]Man(b1-4)GlcNAc(b1-4)GlcNAc
# Summary of the method: as §1
# [15] = target: Gal(b1-4)GlcNAc(b1-2)Man(a1-6)Man(b1-4)GlcNAc(b1-4)GlcNAc
# Summary of the method: as §1
# [16] = target: Gal(b1-4)GlcNAc(b1-2)Man(a1-6)[GlcNAc(b1-2)Man(a1-3)]Man(b1-4)GlcNAc(b1-4)GlcNAc
# Summary of the method: as §1
# [17] = target: Gal(b1-4)GlcNAc(b1-2)Man(a1-6)[Man(a1-3)]Man(b1-4)GlcNAc(b1-4)GlcNAc
# Summary of the method: as §1
# [18] = target: Gal(b1-4)GlcNAc(b1-2)[Gal(b1-4)GlcNAc(b1-4)]Man(a1-3)[Gal(b1-4)GlcNAc(b1-2)Man(a1-6)]Man(b1-4)GlcNAc(b1-4)GlcNAc
# Summary of the method: as §1
# [19] = target: Gal(b1-4)GlcNAc(b1-2)[Gal(b1-4)GlcNAc(b1-4)]Man(a1-3)[Gal(b1-4)GlcNAc(b1-2)[Gal(b1-4)GlcNAc(b1-6)]Man(a1-6)]Man(b1-4)GlcNAc(b1-4)GlcNAc
# Summary of the method: as §1
# [20] = target: Gal(b1-4)GlcNAc(b1-2)[Gal(b1-4)GlcNAc(b1-4)]Man(a1-3)[GlcNAc(b1-4)][Gal(b1-4)GlcNAc(b1-2)Man(a1-6)]Man(b1-4)GlcNAc(b1-4)GlcNAc
# Summary of the method: as §1
# [21] = target: Gal(b1-4)GlcNAc(b1-2)[Gal(b1-4)GlcNAc(b1-4)]Man(a1-3)[GlcNAc(b1-4)][Gal(b1-4)GlcNAc(b1-2)[Gal(b1-4)GlcNAc(b1-6)]Man(a1-6)]Man(b1-4)GlcNAc(b1-4)GlcNAc
# Summary of the method: as §1
# [22] = target: Gal(b1-4)GlcNAc(b1-2)[Gal(b1-4)GlcNAc(b1-6)]Man(a1-6)[Gal(b1-4)GlcNAc(b1-2)Man(a1-3)]Man(b1-4)GlcNAc(b1-4)GlcNAc
# Summary of the method: as §1
binder,measurement,setting,value
B1,glycan array binding signal (z-score),[1],-0.244
same,glycan array binding signal (z-score),[2],-0.205
same,glycan array binding signal (z-score),[3],-0.203
same,glycan array binding signal (z-score),[4],-0.222
same,glycan array binding signal (z-score),[5],-0.245
same,glycan array binding signal (z-score),[6],0.734
same,glycan array binding signal (z-score),[7],-0.21
same,glycan array binding signal (z-score),[8],-0.227
same,glycan array binding signal (z-score),[9],-0.188
same,glycan array binding signal (z-score),[10],-0.212
same,glycan array binding signal (z-score),[11],-0.201
same,glycan array binding signal (z-score),[12],-0.221
same,glycan array binding signal (z-score),[13],-0.238
same,glycan array binding signal (z-score),[14],-0.043
same,glycan array binding signal (z-score),[15],-0.214
same,glycan array binding signal (z-score),[16],-0.156
same,glycan array binding signal (z-score),[17],-0.226
same,glycan array binding signal (z-score),[18],-0.153
same,glycan array binding signal (z-score),[19],1.3
same,glycan array binding signal (z-score),[20],-0.208
same,glycan array binding signal (z-score),[21],-0.2
same,glycan array binding signal (z-score),[22],-0.064
